Read counts are not given, so values of variants with three or more changes are uncertain.
B1: LINE1-mini (parent)
chain: GGCAGAGCUCAACACAGCGUGGCAAAGUGGCUGUGGCUAGACUGCC

Variants of: B1
Experiment: self-cleavage, relative activity (ratio to wild type); higher = more cleavage; in vitro, sequencing; the parent is a self-cleaving ribozyme

Which self-cleavage does the source give for G2A A16C U28G here?
The self-cleavage was 0.

Which self-cleavage does the source give for G2A A16G A25G here?
Its self-cleavage is 0.17.

For G2A A16G A39C, which self-cleavage is on record?
The self-cleavage was 0.3.

With G2A A16G C31G U43C C45G as the variant, how does the self-cleavage read?
Its self-cleavage is 0.

Which self-cleavage does the source give for G2A A16G C42G here?
The self-cleavage was 0.05.

Which self-cleavage does the source give for G2A A16G G17A G30A here?
The self-cleavage was 0.14.

For G2A A16G G21C G22A U28C, which self-cleavage is on record?
Its self-cleavage is 0.1.

Which self-cleavage does the source give for G2A A16G U20G A26G C37U here?
Its self-cleavage is 0.1.

For G2A A16U C18G G22C A26G U32C, which self-cleavage is on record?
The self-cleavage was 0.14.

For G2A A16U C18U U28A, which self-cleavage is on record?
The self-cleavage was 0.07.

Which self-cleavage does the source give for G2A A16U G17A G19U A26C here?
The self-cleavage was 0.02.

For G2A A16U G19A G29C U38A G40U, which self-cleavage is on record?
Its self-cleavage is 0.78.

For G2A A16U G21C, which self-cleavage is on record?
The self-cleavage was 0.14.

With G2A A16U G44A as the variant, how does the self-cleavage read?
Its self-cleavage is 0.07.

For G2A A16U U32G C46U, which self-cleavage is on record?
Its self-cleavage is 0.76.

Which self-cleavage does the source give for G2A A16U U43C here?
The self-cleavage was 0.03.

Which self-cleavage does the source give for G2A A24C G30C C45U C46G here?
Its self-cleavage is 1.13.

For G2A A24G C46A, which self-cleavage is on record?
Its self-cleavage is 0.77.

With G2A A24U A25U U34G A39C as the variant, how does the self-cleavage read?
The self-cleavage was 0.11.

With G2A A24U C31G as the variant, how does the self-cleavage read?
The self-cleavage was 0.08.

With G2A A24U G27A as the variant, how does the self-cleavage read?
The self-cleavage was 0.34.

For G2A A24U G27U, which self-cleavage is on record?
The self-cleavage was 0.15.

For G2A A24U G27U G36C, which self-cleavage is on record?
The self-cleavage was 0.37.

For G2A A24U U28A U34C C37A, which self-cleavage is on record?
Its self-cleavage is 0.15.

With G2A A25C A39U A41G as the variant, how does the self-cleavage read?
The self-cleavage was 0.21.

With G2A A25C G35C C46A as the variant, how does the self-cleavage read?
Its self-cleavage is 0.07.

For G2A A25C U32G, which self-cleavage is on record?
The self-cleavage was 0.12.

For G2A A25U C31A U34C, which self-cleavage is on record?
Its self-cleavage is 0.11.

For G2A A25U C31U, which self-cleavage is on record?
The self-cleavage was 0.17.

With G2A A25U G30A C45G as the variant, how does the self-cleavage read?
The self-cleavage was 0.11.

Which self-cleavage does the source give for G2A A25U G30A G40C here?
The self-cleavage was 0.15.

With G2A A25U G36C as the variant, how does the self-cleavage read?
The self-cleavage was 0.59.

Which self-cleavage does the source give for G2A A26C U38C G40C here?
The self-cleavage was 0.02.

For G2A A26G G29U C31U, which self-cleavage is on record?
Its self-cleavage is 0.09.

For G2A A26U G30A A39C, which self-cleavage is on record?
Its self-cleavage is 0.25.

For G2A A26U U32A C45A, which self-cleavage is on record?
The self-cleavage was 0.1.

For G2A A41C G44U, which self-cleavage is on record?
Its self-cleavage is 0.16.

With G2A C3A A4G C15A as the variant, how does the self-cleavage read?
Its self-cleavage is 0.4.

For G2A C3A A6G C46U, which self-cleavage is on record?
Its self-cleavage is 0.28.

For G2A C3A A26C, which self-cleavage is on record?
Its self-cleavage is 2.48.

Which self-cleavage does the source give for G2A C3A A26U here?
Its self-cleavage is 2.94.

With G2A C3A C15A G27A G30C as the variant, how does the self-cleavage read?
Its self-cleavage is 2.44.

Which self-cleavage does the source give for G2A C3A C15G G19U here?
Its self-cleavage is 0.11.

With G2A C3A C15G G21U C42U as the variant, how does the self-cleavage read?
The self-cleavage was 0.02.

Which self-cleavage does the source give for G2A C3A C15U A16C G22C here?
The self-cleavage was 0.3.

Which self-cleavage does the source give for G2A C3A C23G A39U here?
Its self-cleavage is 1.84.

Which self-cleavage does the source give for G2A C3A C31A U32C here?
The self-cleavage was 0.37.

For G2A C3A C31G, which self-cleavage is on record?
Its self-cleavage is 0.39.

For G2A C3A C31G C37U, which self-cleavage is on record?
Its self-cleavage is 0.68.

Which self-cleavage does the source give for G2A C3A G19U C42G here?
The self-cleavage was 0.38.

With G2A C3A G22C G44A as the variant, how does the self-cleavage read?
Its self-cleavage is 0.61.

For G2A C3A G36U, which self-cleavage is on record?
The self-cleavage was 1.71.

Which self-cleavage does the source give for G2A C3G A4U A14G C18G U28A C42G here?
Its self-cleavage is 0.01.

With G2A C3G C8G G22A C23A C42G as the variant, how does the self-cleavage read?
Its self-cleavage is 0.17.

For G2A C3G C8U U9A C13A G17U G36C, which self-cleavage is on record?
Its self-cleavage is 1.3.

Which self-cleavage does the source give for G2A C3G C15A here?
The self-cleavage was 0.12.

With G2A C3G C15U G33U as the variant, how does the self-cleavage read?
Its self-cleavage is 0.32.

For G2A C3G C18U U32G, which self-cleavage is on record?
The self-cleavage was 0.08.

For G2A C3G C23U U32G C37G, which self-cleavage is on record?
Its self-cleavage is 0.9.

With G2A C3G G5C A26U as the variant, how does the self-cleavage read?
Its self-cleavage is 0.17.

Which self-cleavage does the source give for G2A C3G G17U A26G G40A U43C C45G here?
The self-cleavage was 0.07.

For G2A C3G G19A A24G A25U C45A, which self-cleavage is on record?
Its self-cleavage is 0.68.

Which self-cleavage does the source give for G2A C3G G19A G22A G33U here?
The self-cleavage was 0.22.

With G2A C3G G19U C23U as the variant, how does the self-cleavage read?
The self-cleavage was 0.16.

For G2A C3G U32C A39C U43G C46A, which self-cleavage is on record?
The self-cleavage was 0.93.

For G2A C3U A12G A41U, which self-cleavage is on record?
Its self-cleavage is 0.04.

Which self-cleavage does the source give for G2A C3U A26G G36C U43C here?
Its self-cleavage is 0.16.

With G2A C3U C15U G19C A24C C45G as the variant, how does the self-cleavage read?
Its self-cleavage is 0.38.

For G2A C3U C18A, which self-cleavage is on record?
The self-cleavage was 0.43.

Which self-cleavage does the source give for G2A C3U G7A here?
Its self-cleavage is 0.65.

For G2A C3U G7C A11G G30U C31U, which self-cleavage is on record?
Its self-cleavage is 0.02.

Which self-cleavage does the source give for G2A C3U G7C G17A C31A G33A G35A C45U here?
The self-cleavage was 0.13.

For G2A C3U G17U G33U, which self-cleavage is on record?
Its self-cleavage is 0.24.

With G2A C3U G27A C31U C37G as the variant, how does the self-cleavage read?
The self-cleavage was 0.93.

With G2A C3U G35U G40U as the variant, how does the self-cleavage read?
Its self-cleavage is 0.1.

For G2A C3U G40C, which self-cleavage is on record?
Its self-cleavage is 0.49.

For G2A C8A A14U, which self-cleavage is on record?
Its self-cleavage is 0.39.

For G2A C8A C10A A12U C18G G30C, which self-cleavage is on record?
The self-cleavage was 0.01.

Which self-cleavage does the source give for G2A C8A C18A here?
The self-cleavage was 0.1.

For G2A C8A C37A, which self-cleavage is on record?
Its self-cleavage is 0.5.

With G2A C8A G19U U28A G29C as the variant, how does the self-cleavage read?
The self-cleavage was 0.06.

Which self-cleavage does the source give for G2A C8G A25C C46U here?
The self-cleavage was 0.04.

With G2A C8G C10G G29U G30U U32G C42A as the variant, how does the self-cleavage read?
The self-cleavage was 0.03.

— the RNAGym collection of RNA variant scans (doi:10.7554/elife.90254)
